Reference: the antibiotic and cytotoxicity screens of Wong et al. (2023)
Some of the results follow.

How the values were obtained:
HSkMC = human skeletal muscle cells; assay: cytotoxicity call (relative viability < 0.9); conditions: 10 µM
HepG2 = assay: cytotoxicity call (relative viability < 0.9); conditions: 10 µM
S. aureus RN4220 = assay: growth inhibition call (relative growth <= 0.2); conditions: 50 µM

Compound	cytotoxicity call (HSkMC)	cytotoxicity call (HepG2)	growth inhibition call (S. aureus RN4220)
C[C@@H]1CN([C@H](C)CO)C(=O)c2cc(NC(=O)C3CC3)ccc2O[C@H]1CN(C)Cc1ccc(C(=O)O)cc1	inactive	inactive	inactive
CNC(=O)c1c(I)c(C(=O)NCC(=O)Nc2c(I)c(C(=O)O)c(I)c(C(=O)NCCO)c2I)c(I)c(N(C)C(C)=O)c1I	inactive	inactive	inactive
C[C@H]1CN([C@@H](C)CO)C(=O)c2cc(NC(=O)Cc3cn(C)c4ccccc34)ccc2O[C@@H]1CN(C)Cc1ccc(Oc2ccccc2)cc1	active	active	inactive
CCOC(=O)c1c(C)cc(O)cc1O	inactive	inactive	inactive
CCNC(=O)C[C@@H]1C=C[C@@H](NC(=O)C2CCOCC2)[C@H](CO)O1	inactive	inactive	inactive
C[C@H](CO)N1C[C@H](C)[C@H](CN(C)Cc2ccccc2)Oc2c(NS(=O)(=O)c3cn(C)cn3)cccc2C1=O	inactive	inactive	inactive
CCOC(=O)C[C@H]1CCCNC1	inactive	inactive	inactive
COCC(=O)N1C[C@H](C)[C@@H](OC)CN(C)C(=O)c2ccc(NC(=O)Nc3ccccc3)cc2OC[C@@H]1C	inactive	inactive	inactive
CC(C)(C)OC(=O)N1CCC(N)CC1	inactive	inactive	inactive
C[C@@H]1CN([C@H](C)CO)S(=O)(=O)c2ccc(C#CC3(O)CCCC3)cc2O[C@H]1CN(C)C(=O)Nc1ccc(F)cc1	inactive	inactive	inactive
COc1ccc(C2COc3c(ccc(O)c3OC)C2)c(OC)c1O (stereo unspecified)	inactive	inactive	inactive
C[C@@H]1CN([C@@H](C)CO)C(=O)c2cc(NC(=O)C3CCCCC3)ccc2O[C@H]1CN(C)Cc1ccc(C(F)(F)F)cc1	inactive	inactive	inactive
C[C@@H]1CCCCO[C@@H](CN(C)C(=O)NC2CCCCC2)[C@@H](C)CN([C@H](C)CO)C(=O)c2cc(NS(=O)(=O)c3ccccc3)ccc2O1	inactive	inactive	inactive
C[C@H]1CN([C@@H](C)CO)C(=O)CCCn2cc(nn2)CO[C@@H]1CN(C)S(=O)(=O)c1ccc(Oc2ccccc2)nc1	inactive	inactive	inactive
C[C@H](CO)N1C[C@H](C)[C@H](CN(C)C(=O)Nc2ccc(F)cc2)Oc2c(NC(=O)c3nc4ccccc4s3)cccc2C1=O	inactive	inactive	inactive
CC(=O)OC1(C(C)=O)CCC2C3C=C(Cl)C4=CC(=O)CCC4(C)C3CCC21C (stereo unspecified)	inactive	inactive	inactive
C[C@H](CO)N1C[C@H](C)[C@H](CN(C)Cc2ccc3c(c2)OCO3)OCc2ccccc2-c2c(n(C)c3ccccc23)C1=O	inactive	inactive	inactive
O=C(O)C[C@@H]1C=C[C@@H](NC(=O)c2ccncc2)[C@H](CO)O1	inactive	inactive	inactive
C[C@H](CO)N1C[C@H](C)[C@H](CN(C)Cc2ccc(C(=O)O)cc2)OCCCC[C@H](C)Oc2ccc(NC(=O)Nc3ccc(C(F)(F)F)cc3)cc2C1=O	inactive	inactive	inactive

Compound	cytotoxicity call (HSkMC)	cytotoxicity call (HepG2)	growth inhibition call (S. aureus RN4220)
C[C@H](CO)N1C[C@H](C)[C@H](CN(C)S(=O)(=O)c2cccc(F)c2)Oc2ncc(C#CC(C)(C)O)cc2C1=O	inactive	inactive	inactive
C[C@@H]1CN([C@H](C)CO)C(=O)c2cc(NS(=O)(=O)c3ccccc3)ccc2O[C@H]1CN(C)CC1CC1	inactive	inactive	inactive
C[C@H]1CN([C@@H](C)CO)C(=O)Cc2cc(NC(=O)Nc3cc(Cl)cc(Cl)c3)ccc2O[C@H]1CN(C)S(=O)(=O)c1ccc(Cl)cc1	active	active	inactive
C[C@@H]1CN([C@H](C)CO)C(=O)c2cc(NC(=O)Nc3ccccc3)ccc2O[C@@H](C)CCCCO[C@H]1CN(C)S(=O)(=O)c1ccc(Cl)cc1	inactive	active	inactive
Cc1cc(S(=O)(=O)N2CCCO[C@@H]2CNC(=O)C(=O)NCc2ccncc2)ccc1F	inactive	inactive	inactive
COc1ccc(NC(=O)Nc2ccc3c(c2)C(=O)N([C@@H](C)CO)C[C@H](C)[C@H](CN(C)Cc2ccc4c(c2)OCO4)OCCCC[C@H](C)O3)cc1	active	inactive	inactive
C[C@H](CO)N1C[C@H](C)[C@H](CN(C)S(=O)(=O)c2ccccc2)Oc2ccc(NS(C)(=O)=O)cc2CC1=O	inactive	inactive	inactive
Cc1noc(C)c1S(=O)(=O)Nc1ccc2c(c1)C(=O)N([C@@H](C)CO)C[C@@H](C)[C@@H](CN(C)C(=O)Nc1cccc3ccccc13)OCCCC[C@@H](C)O2	inactive	active	inactive
COc1ccc(CN(C)C[C@H]2OCCCC[C@H](C)Oc3ccc(NC(=O)Nc4ccc(C(F)(F)F)cc4)cc3C(=O)N([C@H](C)CO)C[C@H]2C)cc1	active	active	inactive
C[C@@H]1CN([C@H](C)CO)C(=O)Cc2cc(NC(=O)Cc3cn(C)c4ccccc34)ccc2O[C@@H]1CN(C)C(=O)Nc1ccc(C(F)(F)F)cc1	inactive	inactive	inactive
C[C@H]1CCCCO[C@H](CN(C)CC2CCCCC2)[C@@H](C)CN([C@@H](C)CO)C(=O)c2cc(NS(=O)(=O)c3ccccc3)ccc2O1	inactive	inactive	inactive
Cc1noc(C)c1S(=O)(=O)Nc1ccc2c(c1)C(=O)N([C@@H](C)CO)C[C@@H](C)[C@@H](CN(C)Cc1ccc(-c3ccccc3)cc1)O2	inactive	inactive	inactive
C[C@H](O)C#Cc1cnc2c(c1)C(=O)N([C@@H](C)CO)C[C@H](C)[C@H](CN(C)C(=O)CN1CCOCC1)O2	inactive	inactive	inactive
CC(=O)CNC(=O)Cc1ccccc1	inactive	inactive	inactive
C[C@@H]1CN([C@H](C)CO)C(=O)c2cc(NS(=O)(=O)c3ccccc3)ccc2O[C@H]1CN(C)S(=O)(=O)c1cccs1	inactive	inactive	inactive
COc1ccc(C#Cc2cnc3c(c2)C(=O)N([C@H](C)CO)C[C@H](C)[C@@H](CN(C)CC2CCOCC2)O3)cc1	inactive	inactive	inactive
NC(=O)c1ccc([N+](=O)[O-])cc1Cl	inactive	inactive	inactive
C[C@@H]1CCCCO[C@H](CN(C)C(=O)C2CCCCC2)[C@@H](C)CN([C@H](C)CO)C(=O)c2cc(NC(=O)c3ccncc3)ccc2O1	inactive	inactive	inactive
C[C@@H]1CCCCO[C@H](CN(C)C(=O)Nc2ccc(F)cc2)[C@H](C)CN([C@H](C)CO)C(=O)c2cc(NC(=O)CCC(F)(F)F)ccc2O1	inactive	inactive	inactive

Compound	cytotoxicity call (HSkMC)	cytotoxicity call (HepG2)	growth inhibition call (S. aureus RN4220)
C[C@@H]1CN([C@@H](C)CO)S(=O)(=O)c2ccc(C#Cc3cccc(F)c3)cc2O[C@H]1CN(C)C(=O)CN1CCOCC1	inactive	inactive	inactive
C[C@H]1CN([C@@H](C)CO)C(=O)Cc2cc(NS(C)(=O)=O)ccc2O[C@H]1CN(C)C(=O)Nc1ccccc1	inactive	inactive	inactive
COc1ccc(S(=O)(=O)N(C)C[C@@H]2OCCCC[C@@H](C)Oc3ccc(NC(=O)C4CCCCC4)cc3C(=O)N([C@H](C)CO)C[C@H]2C)cc1	inactive	active	inactive
Cc1cn([C@H]2C[C@@H](NC(=O)C(C)(C)C)[C@@H](CO)O2)c(=O)[nH]c1=O	inactive	inactive	inactive
C[C@H](CO)N1C[C@H](C)[C@@H](CN(C)S(=O)(=O)c2ccc(F)cc2)Oc2c(NS(=O)(=O)c3cn(C)cn3)cccc2C1=O	inactive	inactive	inactive
COc1ccc(NC(=O)Nc2ccc3c(c2)C(=O)N([C@@H](C)CO)C[C@H](C)[C@@H](CN(C)C(=O)C2CCCCC2)OCCCC[C@H](C)O3)cc1	inactive	inactive	inactive
C[C@@H]1CN([C@H](C)CO)S(=O)(=O)c2ccc(-c3ccc(C(=O)N(C)C)cc3)cc2O[C@@H]1CN(C)C(=O)C1CCC1	inactive	inactive	inactive
COc1ccc(CN(C)C[C@@H]2OCCCC[C@H](C)Oc3ccc(NS(=O)(=O)c4ccc(OC)cc4)cc3C(=O)N([C@@H](C)CO)C[C@@H]2C)cc1	inactive	active	inactive
COC(=O)/C=C1\N[C@H]2CCCC[C@@H]2NC1=O	inactive	inactive	inactive
O=C1CC(c2ccc(O)cc2)Oc2cc(O)cc(O)c21 (stereo unspecified)	inactive	inactive	inactive
CO[C@@]12[C@H](COC(N)=O)C3=C(C(=O)C(C)=C(N)C3=O)N1C[C@@H]1N[C@@H]12	inactive	inactive	inactive
COc1ccc(NC(=O)Nc2ccc3c(c2)C(=O)N([C@H](C)CO)C[C@H](C)[C@H](CN(C)C(=O)Nc2ccc(OC)cc2)OCCCC[C@H](C)O3)cc1	inactive	inactive	inactive
CCS(=O)(=O)N1C[C@]2(C1)CN([C@H](CO)c1[nH]c3cc(ccc3c12)OC)S(=O)(=O)c1cccc(c1)OC	inactive	inactive	inactive
CO[C@@H]1CN(C)C(=O)c2ccc(NC(=O)C3CC3)cc2OC[C@H](C)N(C(=O)CN2CCOCC2)C[C@@H]1C	inactive	inactive	inactive
CC(=O)N1CCN(C(=O)Cc2ccc(S(C)(=O)=O)cc2)C[C@@H](O)C1	inactive	inactive	inactive
C1CN(C2CCOCC2)CCN1	inactive	inactive	inactive
COc1ccc(NC(=O)Nc2ccc3c(c2)C(=O)N([C@H](C)CO)C[C@@H](C)[C@H](CN(C)Cc2ccc4c(c2)OCO4)OCCCC[C@H](C)O3)cc1	inactive	inactive	inactive
C[C@@H]1CN([C@@H](C)CO)C(=O)c2cccc(NS(=O)(=O)c3ccc(F)cc3)c2O[C@H]1CN(C)Cc1ccc(-c2ccccc2)cc1	inactive	inactive	inactive
C[C@@H]1CCCCO[C@H](CN(C)C(=O)Nc2ccc(C(F)(F)F)cc2)[C@H](C)CN([C@H](C)CO)C(=O)c2cc(NS(C)(=O)=O)ccc2O1	inactive	inactive	inactive
